# Experimental data reported in patent US8293256B2, “Sulfamide derivatives and cosmetic use thereof” (L'Oreal, priority 2004, dated 2012).
# At least one read-out could not be matched to a standard name with certainty.
# How the values were obtained:
# stratum corneum [1] = test: Transepidermal Water Loss (TWL) across isolated defatted stratum corneum (Evaporimeter EP1); conditions: 40% relative humidity, 30° C., 3% aqueous solution (compounds 9 and 15 in isopropyl N-lauroyl sarcosinate), mean ± standard deviation, 8 samples
# Protocol: (§1) Two tests were performed to evaluate the moisturizing potential of the compounds of the invention formulated in an aqueous 3% solution (except for compounds 9 and 15, which were evaluated in a solution of isopropyl N-lauroyl sarcosinate).
# Transepidermal Water Loss (TWL), evaluation of the changes in barrier function of the stratum corneum.
# Transepidermal water loss is a physiological phenomenon of diffusion of water vapour across the horny layer. It results from the presence of a high pressure gradient of water vapour between the internal and external media of the body. The TWL depends on the integrity of the barrier function of the stratum corneum. The machine evaluating the TWL (Evaporimeter EP1, Servomed) measures the flow of water that diffuses passively across the stratum corneum (g/m^2/h).
# The isolated stratum is placed (inner face) on a water tank and equilibrated in a room regulated at 40% relative humidity (T=30° C.). Before the measurement, the stratum corneum is defatted via a two-hour treatment in a mixture of chloroform and methanol (2 v/lv). For each measurement, the TWL is measured on the stratum corneum before treatment and then 2 and 20 hours after application of the treatment. The relative variation in the TWL allows assessment of the change in the barrier property of the stratum corneum. The measurements are analysed in pairs. For each product, 8 measurements are taken on 2 batches of stratum corneum.
# The technique allows measurement of the flow of water that diffuses passively across a membrane of stratum corneum. This measurement takes into account the integrity of the barrier function of the stratum corneum. In the protocol used, the stratum corneum is defatted via a two-hour treatment in a mixture of chloroform and methanol (2 v/lv). The measurements are taken on the control stratum corneum and then 2 hours and 20 hours after application of the product. The relative variation in the TWL allows assessment of the change in the barrier property of the stratum corneum.
# The mean and the standard deviation were calculated on 8 samples distributed over 2 batches of stratum corneum.
# stratum corneum [2] = test: Dermometer: mechanical measurement of the plasticizing effect (modulus of elasticity); conditions: 30° C., 75% relative humidity, 3% aqueous solution (compounds 9 and 15 in isopropyl N-lauroyl sarcosinate), mean ± standard deviation, 6 to 10 samples
# Protocol: as §1
# Dermometer, mechanical measurement of the plasticizing effect (described by J. de Rigal, J-L. Leveque, International Journal of Cosmetic Science, 1982, 247-260),
# The tests carried out were performed under standard conditions on stratum corneum in a room with regulated temperature and humidity (T=30° C. and RH=75%). The modulus of elasticity measurements are performed on each control specimen and then 2 hours and 20 hours after application of the treatment. The relative variation in the modulus allows assessment of the plasticizing effect of the active agent on the stratum corneum.
# The mean and the standard deviation were calculated on 6 to 10 samples.
SMILES,Relative variation of the TWL measurements (stratum corneum [1]; 2 h after application),Relative variation of the TWL measurements (stratum corneum [1]; 20 h after application),Relative variation in the modulus of elasticity of stratum corneum (stratum corneum [2]; 2 h after application),Relative variation in the modulus of elasticity of stratum corneum (stratum corneum [2]; 20 h after application)
NS(=O)(=O)NCCO [drawing 42],38 ± 18%,37 ± 17%,–,–
NS(=O)(=O)NCC(O)CO (stereo not drawn) [drawing 34],–,–,−41 ± 17%,−54 ± 15%
O=S(=O)(NCCO)NCCO [drawing 45],31.5 ± 22.1%,21.1 ± 6.0%,–,–
O=S1(=O)NCC(O)[C@@H](O)CN1 (stereo partly drawn),–,–,−20 ± 6%,-24 ± 10%
NS(=O)(=O)NCCOS(N)(=O)=O [drawing 48],18 ± 15%,−0.5 ± 10%,–,–
C[Si](C)(C)C(NS(=O)(=O)NCCO)[Si](C)(C)C [drawing 38],–,–,−28 ± 15%,−31 ± 24%
NS(=O)(=O)NCC(O)CO (stereo not drawn) [drawing 43],13 ± 11%,1 ± 10%,–,–
"OCC(O)CO [3% glycerol in water, glycerol, reference compound]",41.2 ± 19.0%,3.1 ± 20.3%,−41 ± 12%,−51 ± 15%
O=S(=O)(NCC(O)CO)NCC(O)CO (stereo not drawn) [drawing 46],4.6 ± 9.4%,1.0 ± 6.0%,–,–
C[Si](C)(C)C(NS(=O)(=O)NCCO)[Si](C)(C)C [drawing 47],1 ± 8%,1 ± 5%,–,–
NS(=O)(=O)NCCO [drawing 33],–,–,−46 ± 13%,−63 ± 14%
O=S(=O)(NCC(O)CO)NCC(O)CO (stereo not drawn) [drawing 37],–,–,−27 ± 15%,−29 ± 13%
NS(=O)(=O)NCCOS(N)(=O)=O [drawing 39],–,–,−34 ± 14%,−44 ± 14%
O=S(=O)(NCCO)NCCO [drawing 36],–,–,−40 ± 16%,−49 ± 14%
